{"source": "paper PMC11995724", "about": "“Antibiotic target discovery by integrated phenotypic and activity-based profiling of electrophilic fragments” (Cell chemical biology, 2025)", "note": "The whole screen tested about 3,200 compounds, of which about 110 (3.4%) showed an effect of 50% or more. The list shows a part of the results.", "data": [{"system": "T1, V. cholerae SAD30", "T1 construct": "SAD30", "set-up": "species or system S. aureus MSSA476 (TSB) or V. cholerae SAD30 (LB); 384-well bacterial growth screen at 25 uM, OD600 relative to DMSO control", "settings": "relative growth, OD600, LB; 25 µM; inhibitor", "units": {"% of control remaining": "%"}, "values": [{"molecule": "CCn1c2ccccc2c2cc(NC(=O)C(C)Cl)ccc21", "note": "(centres unmarked) [4-E12, 2-chloro-N-(9-ethyl-9H-carbazol-3-yl)propanamide]", "% of control remaining": 90.4033}, {"molecule": "C=CC(=O)NC(Cc1ccccc1)c1ccccn1", "note": "(centres unmarked) [2-K14, N-[2-phenyl-1-(pyridin-2-yl)ethyl]prop-2-enamide]", "% of control remaining": 85.1008}, {"molecule": "C=CC(=O)N1CCC([C@@H](C)O)CC1", "note": "[3-E12, 1-{4-[(1R)-1-hydroxyethyl]piperidin-1-yl}prop-2-en-1-one]", "% of control remaining": 104.617}, {"molecule": "Cc1ccc(C=C(C#N)C(=O)Nc2ccccc2Cl)s1", "note": "[9-C22, N-(2-chlorophenyl)-2-cyano-3-(5-methylthiophen-2-yl)prop-2-enamide]", "% of control remaining": 95.7852}, {"molecule": "Cl.O=C(CCl)NC1CCN(Cc2ccccc2)C1", "note": "(centres unmarked) [6-G18, N-(1-benzylpyrrolidin-3-yl)-2-chloroacetamide hydrochloride]", "% of control remaining": 91.1556}, {"molecule": "C=CC(=O)N1CCC(C(=O)N2CCCC(CC(N)=O)CC2)CC1", "note": "(centres unmarked) [2-F12, 2-{1-[1-(prop-2-enoyl)piperidine-4-carbonyl]azepan-4-yl}acetamide]", "% of control remaining": 87.88}, {"molecule": "CCN(Cc1cccc(C)c1)C(=O)CCl", "note": "[5-J16, 2-chloro-N-ethyl-N-[(3-methylphenyl)methyl]acetamide]", "% of control remaining": 90.1124}, {"molecule": "C#CCN1C(=O)C=CC1=O", "note": "[10-F09, 1-(prop-2-yn-1-yl)-2,5-dihydro-1H-pyrrole-2,5-dione]", "% of control remaining": 15.1179}, {"molecule": "CCN1C(=O)C(=Cc2ccc(-c3ccc(F)cc3)o2)C(C)=C(C#N)C1=O", "note": "[9-P09, 1-ethyl-5-{[5-(4-fluorophenyl)furan-2-yl]methylidene}-4-methyl-2,6-dioxo-1,2,5,6-tetrahydropyridine-3-carbonitrile]", "% of control remaining": 92.794}, {"molecule": "N#CC(=Cc1cc(F)ccc1F)C(=O)Nc1ccc(F)cc1F", "note": "[8-C10, 2-cyano-N-(2,4-difluorophenyl)-3-(2,5-difluorophenyl)prop-2-enamide]", "% of control remaining": 78.2461}, {"molecule": "C=CC(=O)NC1CC2(CCC(C(=O)O)CC2)C1", "note": "(centres unmarked) [2-I16, 2-(prop-2-enamido)spiro[3.5]nonane-7-carboxylic acid]", "% of control remaining": 94.8278}, {"molecule": "COc1cc(C=C(C#N)C(=O)NC2CCCCC2C)cc(OC)c1O", "note": "(centres unmarked) [9-H21, 2-cyano-3-(4-hydroxy-3,5-dimethoxyphenyl)-N-(2-methylcyclohexyl)prop-2-enamide]", "% of control remaining": 94.9694}, {"molecule": "C=CC(=O)NCc1ccc(C(=O)N2CCN(c3nc(C)n[nH]3)CC2)cc1", "note": "[2-F22, N-({4-[4-(3-methyl-1H-1,2,4-triazol-5-yl)piperazine-1-carbonyl]phenyl}methyl)prop-2-enamide]", "% of control remaining": 111.657}, {"molecule": "O=C(CCl)NC1CN(c2ccc(C(F)(F)F)cc2)C1", "note": "[7-J06, 2-chloro-N-{1-[4-(trifluoromethyl)phenyl]azetidin-3-yl}acetamide]", "% of control remaining": 90.5336}, {"molecule": "CCn1cc(N2C(=O)C=CC2=O)cn1", "note": "[10-I21, 1-(1-ethyl-1H-pyrazol-4-yl)-2,5-dihydro-1H-pyrrole-2,5-dione]", "% of control remaining": 56.731}, {"molecule": "CC(Cl)C(=O)N1CCN(Cc2ccc3ccccc3n2)CC1", "note": "(centres unmarked) [7-A15, 2-chloro-1-{4-[(quinolin-2-yl)methyl]piperazin-1-yl}propan-1-one]", "% of control remaining": 80.0925}, {"molecule": "C=CC(=O)NC1(c2nc(C3CC3)cc(=O)[nH]2)CCCCC1", "note": "[3-H13, N-[1-(4-cyclopropyl-6-oxo-1,6-dihydropyrimidin-2-yl)cyclohexyl]prop-2-enamide]", "% of control remaining": 88.7374}, {"molecule": "C=CC(=O)N(Cc1cccc2cccnc12)C1CCCN(CC)C1", "note": "(centres unmarked) [1-H11, N-(1-ethylpiperidin-3-yl)-N-[(quinolin-8-yl)methyl]prop-2-enamide]", "% of control remaining": 85.2018}, {"molecule": "O=C(CCl)NC1CCC2(CCC1(F)F)OCCO2", "note": "(centres unmarked) [5-G09, 2-chloro-N-{9,9-difluoro-1,4-dioxaspiro[4.6]undecan-8-yl}acetamide]", "% of control remaining": 99.5272}, {"molecule": "O=C(CCl)Nc1cc(C2CCCC2)nn1-c1ccccc1", "note": "[4-J03, 2-chloro-N-(3-cyclopentyl-1-phenyl-1H-pyrazol-5-yl)acetamide]", "% of control remaining": 120.423}, {"molecule": "CN(C)c1ccc(C=C(C#N)C(=O)Nc2ccccc2C(=O)O)cc1", "note": "[9-I08, 2-{2-cyano-3-[4-(dimethylamino)phenyl]prop-2-enamido}benzoic acid]", "% of control remaining": 78.3821}, {"molecule": "N#CC(=Cc1c(Cl)cccc1Cl)C(=O)NCc1ccco1", "note": "[9-K06, 2-cyano-3-(2,6-dichlorophenyl)-N-[(furan-2-yl)methyl]prop-2-enamide]", "% of control remaining": 82.189}, {"molecule": "CCCCNC(=O)C(C#N)=Cc1c[nH]nn1", "note": "[9-L04, N-butyl-2-cyano-3-(1H-1,2,3-triazol-4-yl)prop-2-enamide]", "% of control remaining": 92.6581}, {"molecule": "CC(C)NC(=O)C(C#N)=Cc1ccc(OC(C)C)cc1", "note": "[8-G12, 2-cyano-N-(propan-2-yl)-3-[4-(propan-2-yloxy)phenyl]prop-2-enamide]", "% of control remaining": 74.983}, {"molecule": "CC(Cl)C(=O)NC(=O)NCc1ccccc1", "note": "(centres unmarked) [6-P06, 1-benzyl-3-(2-chloropropanoyl)urea]", "% of control remaining": 102.228}, {"molecule": "C=CC(=O)N1CCC(C(=O)Nc2n[nH]c3cc(C#N)c(C)cc23)CC1", "note": "[3-J18, N-(6-cyano-5-methyl-1H-indazol-3-yl)-1-(prop-2-enoyl)piperidine-4-carboxamide]", "% of control remaining": 89.2667}, {"molecule": "CCCCNC(=O)C(C#N)=Cc1cc(C)cc(C)c1", "note": "[9-C03, N-butyl-2-cyano-3-(3,5-dimethylphenyl)prop-2-enamide]", "% of control remaining": 104.623}, {"molecule": "C=CC(=O)N(C)[C@H]1CS(=O)(=O)C[C@@H]1O", "note": "(racemic) [3-C15, rac-N-[(3R,4R)-4-hydroxy-1,1-dioxo-1lambda6-thiolan-3-yl]-N-methylprop-2-enamide]", "% of control remaining": 105.852}, {"molecule": "COc1ccc(C=C(C#N)C(=O)Nc2ccc(Cl)cc2Cl)cc1", "note": "[8-K03, 2-cyano-N-(2,4-dichlorophenyl)-3-(4-methoxyphenyl)prop-2-enamide]", "% of control remaining": 80.5574}, {"molecule": "O=C1C=CC(=O)N1c1cccc(O)c1", "note": "[10-O07, 1-(3-hydroxyphenyl)-2,5-dihydro-1H-pyrrole-2,5-dione]", "% of control remaining": 26.4952}, {"molecule": "O=C(CCl)N1N=C(c2ccc3ccccc3c2)CC1c1ccccc1", "note": "(centres unmarked) [4-K22, 2-chloro-1-[3-(naphthalen-2-yl)-5-phenyl-4,5-dihydro-1H-pyrazol-1-yl]ethan-1-one]", "% of control remaining": 112.659}, {"molecule": "O=C1C=CC(=O)N1c1ccccc1Sc1ccc(Cl)cc1", "note": "[10-A03, 1-{2-[(4-chlorophenyl)sulfanyl]phenyl}-2,5-dihydro-1H-pyrrole-2,5-dione]", "% of control remaining": 28.6772}, {"molecule": "O=C(CCl)NCc1ccccc1OC(F)(F)F", "note": "[4-L21, 2-chloro-N-{[2-(trifluoromethoxy)phenyl]methyl}acetamide]", "% of control remaining": 110.416}, {"molecule": "C=CC(=O)NCC1CCCc2nccn21", "note": "(centres unmarked) [2-B15, N-({5H,6H,7H,8H-imidazo[1,2-a]pyridin-5-yl}methyl)prop-2-enamide]", "% of control remaining": 93.2838}, {"molecule": "O=C(CCl)Nc1ccccc1Sc1ccc(Cl)cc1", "note": "[4-O13, 2-chloro-N-{2-[(4-chlorophenyl)sulfanyl]phenyl}acetamide]", "% of control remaining": 72.9782}, {"molecule": "C=CC(=O)NCc1nnc(C2CCOCC2)[nH]1", "note": "[2-M22, N-{[5-(oxan-4-yl)-4H-1,2,4-triazol-3-yl]methyl}prop-2-enamide]", "% of control remaining": 103.32}, {"molecule": "Cc1cc(C(=O)CCl)c(C)n1-c1ccc(Cl)c(C(F)(F)F)c1", "note": "[10-L18, 2-chloro-1-{1-[4-chloro-3-(trifluoromethyl)phenyl]-2,5-dimethyl-1H-pyrrol-3-yl}ethan-1-one]", "% of control remaining": 92.2657}, {"molecule": "CCCCNC(=O)C(C#N)=Cc1c(Cl)cccc1Cl", "note": "[9-J11, N-butyl-2-cyano-3-(2,6-dichlorophenyl)prop-2-enamide]", "% of control remaining": 75.5269}, {"molecule": "N#CC(=Cc1cc(F)ccc1F)C(=O)Nc1ccc2c(c1)OCCO2", "note": "[8-I10, 2-cyano-3-(2,5-difluorophenyl)-N-(2,3-dihydro-1,4-benzodioxin-6-yl)prop-2-enamide]", "% of control remaining": 69.4086}, {"molecule": "C=CCNC(=O)C(C#N)=Cc1cnn(-c2ccc(Cl)cc2)c1", "note": "[9-M16, 3-[1-(4-chlorophenyl)-1H-pyrazol-4-yl]-2-cyano-N-(prop-2-en-1-yl)prop-2-enamide]", "% of control remaining": 88.1713}, {"molecule": "Cn1c(=O)oc2cc(C(=O)CCl)ccc21", "note": "[10-F07, 6-(2-chloroacetyl)-3-methyl-2,3-dihydro-1,3-benzoxazol-2-one]", "% of control remaining": 44.886}, {"molecule": "Cn1c(N)c(C(=O)CCl)c(=O)[nH]c1=O", "note": "[10-I16, 6-amino-5-(2-chloroacetyl)-1-methyl-1,2,3,4-tetrahydropyrimidine-2,4-dione]", "% of control remaining": 105.513}, {"molecule": "N#CC(=Cc1sc2ccccc2c1Cl)C(=O)NC1CC1", "note": "[9-C18, 3-(3-chloro-1-benzothiophen-2-yl)-2-cyano-N-cyclopropylprop-2-enamide]", "% of control remaining": 72.8076}, {"molecule": "CC(Cl)C(=O)Nc1ccc2oc(=O)n(CCN(C)C)c2c1", "note": "(centres unmarked) [5-L19, 2-chloro-N-{3-[2-(dimethylamino)ethyl]-2-oxo-2,3-dihydro-1,3-benzoxazol-5-yl}propanamide]", "% of control remaining": 98.0141}]}]}
